Reference: PubChem BioAssay AID2546 (National Center for Advancing Translational Sciences (NCATS), 2010)
Where “and” joins values, the source holds several entries; their conditions need not be identical. Identical values can stand only once. Among all 310,000 compounds or so, about 11,000 (3.5%) were called active. Inconclusive means that the source gave no clear call. Such entries were picked first, then a sample of the others. Calls follow the shape of the dose curve; as a rule, active = well fitted inhibition curve with a large enough effect; inconclusive = small, poorly fitted or top-dose-only effect, or effect the other way; inactive = flat fitted curve, though single readings scatter. No potency is given beside an inconclusive call; the fits are too rough. Where a structure was tested more than once in an assay, its records may differ in their call.

test: VP16 counterscreen qHTS for inhibitors of ROR gamma transcriptional activity; conditions: Drosophila S2 Gal4-VP16 UAS-luciferase, luminescence, 20 h; series mostly up to 53.6 µM;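 also: Gal4-VP16 expression switched on by copper sulfate through the metallothionein promoter; nearly all actives have a fitted effect of over 50% in size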
Potency is read from the fitted curve at half-maximal effect; tags tell the direction and shape of the fitted curve.

| SMILES | Potency |
| --- | --- |
| Cc1oc2nc(SCC(=O)N3CCCCC3)nc(N)c2c1C | inconclusive [inhibitor, partial curve] |
| CCN1CCCC1CN(Cc1cc2ccc(C)cc2[nH]c1=O)C(=S)Nc1cccc(OC)c1 (stereo unspecified) | inactive |
| CCOc1ccc(Cc2nccc3cc(OCC)c(OCC)cc23)cc1OCC | inactive and active: 15.8 µM |
| O=C(Nc1nnc(C2CCCO2)s1)c1ccc(Br)cc1 (stereo unspecified) | inconclusive [activator, single point] |
| O=C(NC1CCCCC1)c1cccs1 | inactive |
| O=c1[nH]ncc2ccccc12 | inconclusive [inhibitor, single point] |
| Cc1ccc(C(O)(C(=O)NNc2ccccn2)c2ccc(C)cc2)cc1 | inconclusive [inhibitor, single point] |
| O=C(NCCc1ccc2c(c1)OCCO2)c1cc(F)cc(F)c1 | inconclusive [inhibitor, single point] |
| CN1CCN(c2ccc(NC(=S)NC(=O)c3cccc4ccccc34)cc2)CC1 | inconclusive [inhibitor, single point] |
| Cc1cc2c(cc(C(=O)OC(C(=O)NCC3CCCO3)C(C)C)n2C)o1 (stereo unspecified) | inconclusive [inhibitor, single point] |
| CC(=O)Nc1nc2ccccc2n1Cc1ccc(C)cc1 | active: 2.51 µM |
| Cc1nc(NC(=O)c2c(-c3ccccc3Cl)noc2C)sc1C | inconclusive [inhibitor, single point] |
| Oc1ccc(O)c(-c2cnns2)c1 | inconclusive [inhibitor, single point] |
| CC(C)NC(=O)N1CC2(CCN(C(=O)c3ccco3)CC2)C1 | inactive |
| Cc1cc(NCCO)nc(-n2nc(C)cc2C)n1 | active: 20 µM |
| S=C(NC1CCCCC1)N1CCOCCOCCN(C(=S)NC2CCCCC2)CCOCCOCC1 | inconclusive [inhibitor, single point] |
| O=C(Nc1ccc([N+](=O)[O-])cc1Cl)c1cc(Cl)ccc1O | active: 31.6 µM and active: 3.98 µM and active: 1.26 µM |
| Cn1cc(C(=O)CCl)c2ccccc21 | active: 7.94 µM |
| Oc1c(C(c2ccccn2)N2CCCCC2)cc(Cl)c2cccnc12 (stereo unspecified) | inconclusive [inhibitor, single point] |
| CC(C)CN(CC(C)C)C(=S)NC1CCCCC1 | active: 7.08 µM |
| Cc1ccc(-c2csc(Nc3ccccc3)[n+]2CCc2ccccc2)cc1 | inconclusive [activator, single point] |
| COc1ccc(/C=C/C(=O)c2c(O)cc(C)oc2=O)c(OC)c1 | inconclusive [inhibitor, single point] |
| O=C(/C=C/c1ccccc1)NC(NC(=S)Nc1cccc(O)c1)C(Cl)(Cl)Cl (stereo unspecified) | inconclusive [inhibitor, single point] |
| Cc1cccc(C(=O)NCC(=O)N2CCCC2)c1 | inactive |
| COC(=O)C1(Cc2ccc(O)c(CC3OC3(C)C)c2)OC(=O)C(O)=C1c1ccc(O)cc1 (stereo unspecified) | inconclusive [inhibitor, single point] |
| CC(=O)c1ccc(-n2cc(-c3ccc(C(C)(C)C)cc3)[n+]3c2SCCC3)cc1 | active: 11.2 µM |

| SMILES | Potency |
| --- | --- |
| CCOc1ccccc1C(=O)N1CCN(c2ccc(C(F)(F)F)cn2)CC1 | inactive |
| CCc1ccccc1NC(=O)CCCSc1nc2ccccc2s1 | inconclusive [inhibitor, single point] |
| C=CCn1c(=S)[nH]c2cc(C(=O)Nc3ccc(F)cc3)ccc2c1=O | inconclusive [inhibitor, single point] |
| O=CN1CCN(C(=O)c2ccc3c(c2)OCO3)CC1 | inactive |
| Cn1c(SCC(=O)Nc2cccc(C(=O)O)c2)nnc1-c1cc2cc(Br)ccc2o1 | inactive |
| O=c1cc(-c2ccc(O)c(O)c2)oc2cccc(O)c12 | active: 12.6 µM |
| CCC1CCCCN1S(=O)(=O)c1ccc(NC(=O)CSc2ncccc2C(=O)O)cc1 (stereo unspecified) | inactive |
| COCc1ccc(CN2CCC(n3nccc3NC(=O)CCCc3ccccc3)CC2)o1 | inactive |
| O=C(OCC#CCSc1nc2ccccc2s1)c1ccco1 | inconclusive [inhibitor, partial curve, poor fit] |
| O=S(=O)(NCC1CCCO1)c1ccc(S(=O)(=O)N(Cc2ccccn2)C2CC2)cc1 (stereo unspecified) | inconclusive [activator, single point] |
| Cc1ccccc1CN(C)CC(=O)Nc1ccccc1-c1ccccc1 | inconclusive [inhibitor, single point] |
| O=C(N/N=C/c1ccc([N+](=O)[O-])s1)c1ccccc1Br | active: 6.31 µM |
| CCOc1ccccc1NC(=O)NCc1ccco1 | inactive |
| Cc1ncc(CO)c(/C=N/NC(=O)c2ccc(O)cc2)c1O | inconclusive [inhibitor, partial curve] |
| COc1ccccc1NC(=O)NC1CCCCCCC1 | inactive |
| Cc1ccccc1NC(=O)Nc1nnc(Cc2ccc([N+](=O)[O-])cc2)s1 | inconclusive [inhibitor, single point] |
| CCCCc1ccc(-c2ccc(Br)cc2)nc1 | inactive |
| CCOC(=O)/C=C/S(=O)(=O)c1ccc(NC(C)=O)cc1 | active: 3.55 µM |
| COCCN1Cc2cccc(C(=O)Nc3cccc(-c4nc5ccccc5[nH]4)c3)c2C1=O | inactive |
| CCC(=O)N1c2ccccc2C(N(C(C)=O)c2ccccc2)CC1C (stereo unspecified) | inactive |
| O=C(NC1CCCCCC1)c1cccc(N2CCCC2=O)c1 | inconclusive [inhibitor, partial curve] |
| c1ccc(-c2c(-c3ccccc3)n(Cc3ccco3)c3ncnc(NCCCn4ccnc4)c23)cc1 | active: 15.8 µM |
| CCCNC(=S)NNC(=O)c1cccs1 | inactive |
| CCn1ccnc1CN(C)Cc1nc(Cc2cccc(C(F)(F)F)c2)no1 | inconclusive [inhibitor, single point] |
| Cn1/c(=N/N=C/c2ccc(N3CCOCC3)cc2)sc2ccccc21 | inconclusive [inhibitor, partial curve] |
